Measurements as given in article PMC4336329 (PLoS ONE, 2015).
Hit rate of the full screen: of about 310,000 compounds, about 14,000 (4.5%) showed an effect of 50% or more. Effects have a minus sign here. The list shows a part of the results.

What follows are molecules tested against human ether-à-go-go-related gene (hERG) potassium channel (human, UniProt Q12809) (assay: primary screen, population patch clamp on CHO cells stably expressing hERG).
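Also: peak tail current of the secondary pulse compared with the same well before compound.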

Sequence of human ether-à-go-go-related gene (hERG) potassium channel (Q12809 whole entry, looked up): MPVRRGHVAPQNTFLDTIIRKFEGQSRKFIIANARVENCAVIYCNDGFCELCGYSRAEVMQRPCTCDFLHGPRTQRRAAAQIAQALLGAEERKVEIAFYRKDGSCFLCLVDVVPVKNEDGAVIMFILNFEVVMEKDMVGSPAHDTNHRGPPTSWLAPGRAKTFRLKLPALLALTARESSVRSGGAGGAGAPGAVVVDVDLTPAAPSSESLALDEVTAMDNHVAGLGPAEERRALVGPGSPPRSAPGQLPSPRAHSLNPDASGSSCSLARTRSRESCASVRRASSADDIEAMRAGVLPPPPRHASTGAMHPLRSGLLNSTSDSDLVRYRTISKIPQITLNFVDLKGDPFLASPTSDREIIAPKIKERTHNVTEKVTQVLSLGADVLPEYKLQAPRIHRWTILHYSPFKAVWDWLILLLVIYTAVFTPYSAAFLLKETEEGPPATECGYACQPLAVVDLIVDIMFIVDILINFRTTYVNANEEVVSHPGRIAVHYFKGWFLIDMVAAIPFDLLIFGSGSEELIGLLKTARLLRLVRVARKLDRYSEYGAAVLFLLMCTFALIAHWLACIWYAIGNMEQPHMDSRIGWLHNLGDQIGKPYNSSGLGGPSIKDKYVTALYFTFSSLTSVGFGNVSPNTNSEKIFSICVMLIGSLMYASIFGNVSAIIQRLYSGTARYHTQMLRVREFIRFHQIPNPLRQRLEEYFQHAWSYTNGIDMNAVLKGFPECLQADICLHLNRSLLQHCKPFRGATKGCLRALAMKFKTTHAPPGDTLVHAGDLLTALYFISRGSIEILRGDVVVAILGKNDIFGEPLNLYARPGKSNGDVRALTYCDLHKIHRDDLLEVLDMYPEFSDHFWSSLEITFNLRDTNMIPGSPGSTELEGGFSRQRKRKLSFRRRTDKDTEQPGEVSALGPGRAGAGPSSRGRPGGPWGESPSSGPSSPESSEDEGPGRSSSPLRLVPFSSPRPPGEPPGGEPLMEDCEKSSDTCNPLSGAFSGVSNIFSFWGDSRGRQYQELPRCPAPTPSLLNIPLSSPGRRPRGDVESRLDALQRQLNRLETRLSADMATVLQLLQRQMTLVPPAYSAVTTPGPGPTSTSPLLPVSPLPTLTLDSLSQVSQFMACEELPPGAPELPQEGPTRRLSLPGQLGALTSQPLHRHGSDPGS

Row | Structure (SMILES) | hERG current change (%, negative = inhibition) at 10uM [%]
1 | CCOCC(=O)Nc1cc(C(=O)Nc2cc(C)cc(C)c2)ccc1Cl | -2.29
2 | COc1ccc(CCNC(=O)C(=O)NCCCN2CCOCC2)cc1 | 7.99
3 | Cc1ccc(NC(=O)C(=O)NCCc2c[nH]c3ccccc23)cc1C | 15.8
4 | O=C(c1ccc2c3n(nc2c1)-c1ccc(Cl)cc1CO3)N1CCOCC1 | -5.05
5 | O=C(N/N=C/c1cccnc1)c1cc(Br)ccc1O | 30.5
6 | Cc1[nH][nH]c(=O)c1C=Nc1ccc(C(F)(F)F)cc1 | 17.4
7 | COc1ccc(-c2nnc(SCC(=O)N3CCOCC3)n2C)cc1OC | -1.06
8 | COC(=O)c1c(NC(C)=O)sc(C(=O)Nc2ccccc2OC)c1C | 16.2
9 | CN(CCCC(=O)NC1CC(C)(C)NC(C)(C)C1)S(=O)(=O)c1ccc([N+](=O)[O-])cc1 | 12.5
10 | CC(C)(C)c1ccc(C(=O)N2CCCC2c2cccs2)cc1 (centres unmarked) | 19.2
11 | CN(C)c1cccc(C(=O)N/C=C/n2cnc3cc(C(F)(F)F)ccc32)c1 | 26.6
12 | CCOc1ccc(-c2cc(CCCC(=O)Nc3cc(OC)ccc3OC)no2)cc1 | -7.32
13 | CC(C)(C)NC(=O)/C(=C\C=C\c1ccccc1)NC(=O)c1ccc([N+](=O)[O-])cc1 | -35.1
14 | CCn1c(NCc2cc(OC)c(OC)c(OC)c2)nc2ccccc21.Cl | -25.3
15 | COc1ccc(OC)c(NC(=O)CS(=O)(=O)c2ccccc2)c1 | -4.1
16 | Oc1ccc(N=Cc2ccc(-c3cccs3)s2)cc1 | -0.074
17 | NS(=O)(=O)c1ccc(CCNC(=O)CSc2nc3ccsc3c(=O)n2CCCCC(=O)O)cc1 | 70.7
18 | COc1cc(/C=N/NC(=O)c2ccc(-n3cccc3)cc2)ccc1O | -40.1
19 | Cc1cc2c3c(c1)C(C)CC(C)(C)N3C(=O)C2=O (centres unmarked) | 0.145
20 | COc1ccc(NC(=O)c2ccc(S(=O)(=O)N3CCOCC3)o2)cc1 | 0.458
21 | O=C(CNC(=O)c1ccc(S(=O)(=O)N2CCCC2)cc1)N/N=C/c1c(Cl)cccc1Cl | 6.64
22 | Cc1c(CCC(=O)O)c(=O)oc2c(C)c(OCc3ccccc3Cl)ccc12 | 16.7
23 | CN(C)CCCN(C(=O)c1ccc(C(=O)c2ccccc2)cc1)c1nc2c(F)cccc2s1 | -67.3

Row | Structure (SMILES) | hERG current change (%, negative = inhibition) at 10uM [%]
24 | OC(CNCCNc1ncccc1C(F)(F)F)COc1ccc(F)cc1 (centres unmarked) | -72
25 | Cc1ccc(NC(=O)Cn2nc(C)c3ccccc3c2=O)cc1 | -7.32
26 | COc1ccc(C(O)Cn2cc([N+](=O)[O-])nc2C)cc1 (centres unmarked) | 13
27 | COc1cccc(CNC(=O)CNC(=O)c2cccs2)c1 | 8.57
28 | COc1ccc(/C(N)=N/OC(=O)Cc2ccc(C)cc2)cc1OC | 8.62
29 | Cc1cc(NC(=O)Cn2nc(-c3cccs3)ccc2=O)cc(C)c1Br | 24.9
30 | Cc1ccnc(Nc2nc3ccccc3s2)n1 | -4.71
31 | Cc1ccc(NC(=O)CSc2nc(=O)n(CCCN3CCOCC3)c3c2CCCC3)cc1 | -45.5
32 | O=C(COC(=O)c1cccc(S(=O)(=O)N2CCOCC2)c1)Nc1ncc(C(F)(F)F)cc1Cl | -48.8
33 | CC1=NC(Nc2nc(C)c3ccccc3n2)=NC(C)(C)C1 | -69.4
34 | CS(=O)(=O)c1cccc(NC(=O)C2CCCN2S(=O)(=O)c2ccc(F)cc2)c1 (centres unmarked) | 7.77
35 | COc1ccc(C2CC(c3ccccc3)=NN2S(=O)(=O)c2ccccc2)c(OC)c1 (centres unmarked) | 6
36 | CC(=O)N/C(=N\OCc1ccc(Br)cc1)c1nonc1NC(C)=O | 12.3
37 | O=C(CN1CCCCC1)Nc1ccc(F)c(Cl)c1 | -4.98
38 | Cc1ccc(C(=O)NC(=S)NNC(=O)c2ccccc2[N+](=O)[O-])cc1 | 14.2
39 | CC(C(=O)Nc1ccc(S(=O)(=O)N2CCOCC2)cc1)N1CCN(c2ccccn2)CC1 (centres unmarked) | -4.31
40 | O=C(C[n+]1cc(-c2ccccc2)n2c1CCC2)Nc1nc(-c2ccc(F)cc2)cs1.[Cl-] | -20.3
41 | COc1ccc(C(=O)OCC(=O)c2cc(OC)ccc2OC)c(OC)c1 | 6.44
42 | CCCn1c(N)c(C(=O)CSc2nnnn2-c2ccc(O)cc2)c(=O)n(C)c1=O | 5.2
43 | O=C(CCc1ccccc1O)NC1CCCc2ccccc21 (centres unmarked) | -20.7
44 | COc1cccc(CNC(=O)COC(=O)C2CCN(c3ccc(C(F)(F)F)cn3)CC2)c1 | -12.8
45 | CS(=O)(=O)N1CCc2cc(C(=O)N3CCN(c4ccc(F)cc4)CC3)ccc21 | -16.3
46 | Cc1ccc(-c2ccc(S(=O)(=O)NCC3CCCO3)cc2)cc1 (centres unmarked) | 26.2

Row | Structure (SMILES) | hERG current change (%, negative = inhibition) at 10uM [%]
47 | Cc1cc(=O)n2nc(N3CCCC3C(=O)Nc3cccc(F)c3)sc2n1 (centres unmarked) | -26.4
48 | COCCNC(=O)C1CCC(=O)N(c2ccc(OC)cc2)C1c1ccc(OC)c(OC)c1 (centres unmarked) | 0.796
49 | O=C(O)c1cccc(Cn2c(Cl)c(/C=N/Nc3ccccc3)sc2=O)c1 | 39.6
50 | Cc1cccc(C)c1NC(=S)N/N=C1\CC2CC=CC12 (centres unmarked) | -14.9
51 | O=C1NCCSC1c1ccccc1 (centres unmarked) | 19.1
52 | Nc1c(C(=O)Nc2ccc3c(c2)OCCO3)nnn1Cc1ccc(F)cc1 | -2.38
53 | O=C(Nc1ccccc1C(=O)N1CCN(c2cccc(Cl)c2)CC1)C1=CSCCO1 | -21.1
54 | COc1ccc(CCNC(=O)CSc2ccc3ccccc3c2)cc1OC | -9.17
55 | O=c1[nH]c(=O)n(C2CCCO2)cc1Br (centres unmarked) | 6.76
56 | O=C(CCNC(=O)c1ccccc1Cl)Nc1nnc(C2CC2)s1 | 26.4
57 | Cc1ccc(-c2nc3ncccn3c2Nc2ccc3c(c2)OCCO3)cc1 | 12.1
58 | O=C(CS(=O)(=O)c1ccccc1)N1CCCCCC1 | -4.14
59 | COc1ccc(C(=O)NC(=O)N2CCCCC2)cc1 | 6.27
60 | Cc1cc2c(cc(C(=O)O)n2C)s1 | 3.57
61 | NCCNc1ccc2nnnn2n1 | 38.7
62 | Cc1ccc(-c2cc(C(=O)NC3CCN(Cc4ccccc4)CC3)c3ccccc3n2)cc1 | 7.42
63 | COc1cccc(C(=O)Oc2cc3c4c(c2)C(C)=CC(C)(C)N4C(=O)C3=O)c1 | -2.41
64 | O=C(N/C(=C\c1ccc([N+](=O)[O-])cc1)C(=O)N1CCCCC1)c1ccccc1 | -76.9
65 | COc1ccc(NC(=O)C2CCCN(c3nn4c(=O)cc(C)nc4s3)C2)cc1 (centres unmarked) | -33.1
66 | COc1ccc(C(=O)N/N=C/c2cc3ccccc3[nH]c2=O)cc1 | 11.8
67 | CCc1cccc2c(-c3csc(=NC)n3C)c[nH]c12 | -44.2
68 | NNC(=O)c1nn(-c2ccc(Cl)cc2)cc1O | -30.2
69 | CC1CC(C)CN(S(=O)(=O)c2ccc(Oc3ccc([N+](=O)[O-])cc3)cc2)C1 (centres unmarked) | -9.72

Row | Structure (SMILES) | hERG current change (%, negative = inhibition) at 10uM [%]
70 | COC(=O)C(=C/C=C/c1ccco1)C(=O)OC | 10.7
71 | COc1ccccc1CNC(=O)C12CC3CC(CC(C3)C1)C2 | 10
72 | COc1ccc(C2N(c3ccccc3)CCN2c2ccccc2)cc1O | 11.2
73 | Cc1noc(NS(=O)(=O)c2ccc(NC(=O)CSc3nc4c(cc3C#N)CCCC4)cc2)c1C | 12.5
74 | COc1ccc(-c2nnc(NC(=O)c3ccc(S(=O)(=O)N4CCc5ccccc5C4)cc3)o2)cc1 | 12.7
75 | COC(=O)c1ccsc1NC(=O)c1ccc(Cl)s1 | 12.3
76 | O=C(N/N=C/C=C/c1ccccc1)c1ccncc1 | -14.9
77 | C/C(CCC(=O)OC[C@H]1O[C@H](C#Cc2ccccc2)C=C[C@@H]1Oc1ccc(C)cc1)=N\OC[C@@H](O)[C@H]1O[C@@H]2OC(C)(C)O[C@@H]2[C@H]1O | -19.2
78 | COc1ccccc1S(=O)(=O)Nc1ccc(-c2nnc3n2CCCCC3)cc1 | -2.31
79 | Clc1ccc(-n2cnnn2)cc1 | -3.56
80 | O=C(CCc1nc2ccccc2c(=O)[nH]1)N1CCCc2ccccc21 | 3.11
81 | Cc1ccc2nc(-c3cccnc3)c(NC3CCCC3)n2c1 | -19.7
82 | CCOc1cc(S(=O)(=O)N2CCOCC2)ccc1F | 7.2
83 | O=C(c1ccc(Cl)c(S(=O)(=O)N2CCOCC2)c1)N1CCN(c2ccccc2)CC1 | -20.1
84 | Cc1nnc(SCc2nnc(-c3ccccc3Br)o2)s1 | 22.1
85 | CCCCNC(=S)N1CCN(CC)CC1.O=C(O)C(=O)O | 6.9
86 | Cc1ccc(SCc2nc3ncccn3c2Br)cc1 | -68
87 | Cc1ccc(NC(=O)c2ccc(S(=O)(=O)N3CCCC3)cc2)cc1 | -2.68
88 | C/C(=N/OC(=O)c1ccc(C)cc1)C(=O)c1ccc(Br)cc1 | 20.5
89 | COc1ccccc1OCC(=O)NNC(=S)NC(=O)c1ccco1 | -0.285
